{"source": "the supplement of paper PMC10126150", "note": "Sequences with one replicate were seen in a single cluster, so their values are uncertain.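 Also: ATP exposure 15 min at 22 °C before imaging.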"}
{"test_system": "ATP", "test": "switch fluorescence ratio, 500 uM ATP over buffer (Cy3 cluster intensity, sum of 5 cycles each) (fold (ratio)); higher = stronger signal-on switching upon ATP binding; sequences stand for … in TCGTCGGCAGCGTCAGATGTGTATAAGAGACAGTTTTTTTTTTTTTTTTTTTTTTTTT…TC", "details": "aptamer strand: ATP DNA aptamer (quencher-CACCTGGGGGAGTATTGCGGAGGAAGG + anchor), 100 nM annealed; ATP concentration: 500 uM; one replicate", "how_it_was_run": "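Clusters carrying Cy3-labelled switching strands on a modified Illumina MiSeq flow-cell were annealed to 100 nM quencher-labelled ATP aptamer and imaged in selection buffer. They were imaged again after 15 min with 500 uM ATP at 22 °C, over five buffer/ATP cycles with NaOH stripping and re-annealing in between. For each cluster, the fluorescence ratio is the summed Cy3 intensity of the target cycles divided by that of the buffer cycles, averaged per switch-domain sequence. Clusters outside 100-1000 RFU were left out.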"}
{"sequence": "GTCTAGGGTG", "switch fluorescence ratio": 1.11}
{"sequence": "GTCTATTTGG", "switch fluorescence ratio": 1.03}
{"sequence": "GTCTCATATG", "switch fluorescence ratio": 0.977}
{"sequence": "GTCTCATGCT", "switch fluorescence ratio": 1.01}
{"sequence": "GTCTCATTTT", "switch fluorescence ratio": 1.02}
{"sequence": "GTCTGACTGA", "switch fluorescence ratio": 1.01}
{"sequence": "GTCTGGCGCA", "switch fluorescence ratio": 0.984}
{"sequence": "GTCTGGGATC", "switch fluorescence ratio": 0.993}
{"sequence": "GTCTGGTCGG", "switch fluorescence ratio": 0.998}
{"sequence": "GTCTGGTTTA", "switch fluorescence ratio": 0.982}
{"sequence": "GTCTTAACGT", "switch fluorescence ratio": 0.986}
{"sequence": "GTCTTTTTCC", "switch fluorescence ratio": 1.19}
{"sequence": "GTCTTTTTGT", "switch fluorescence ratio": 0.988}
{"sequence": "GTGAAATTAA", "switch fluorescence ratio": 0.986}
{"sequence": "GTGAAGATCG", "switch fluorescence ratio": 0.983}
{"sequence": "GTGAATACGG", "switch fluorescence ratio": 1}
{"sequence": "GTGAATCATA", "switch fluorescence ratio": 0.959}
{"sequence": "GTGAATTTAC", "switch fluorescence ratio": 1.05}
{"sequence": "GTGACACCGA", "switch fluorescence ratio": 1.04}
{"sequence": "GTGACATCAT", "switch fluorescence ratio": 0.995}
{"sequence": "GTGACCGCGA", "switch fluorescence ratio": 1.78}
{"sequence": "GTGACGACCT", "switch fluorescence ratio": 1.09}
{"sequence": "GTGACTAAGT", "switch fluorescence ratio": 1.05}
{"sequence": "GTGAGGAATA", "switch fluorescence ratio": 1.1}
{"sequence": "GTGAGGATCA", "switch fluorescence ratio": 1.02}
{"sequence": "GTGAGGATGA", "switch fluorescence ratio": 1}
{"sequence": "GTGAGTGAGA", "switch fluorescence ratio": 0.99}
{"sequence": "GTGATAAAAG", "switch fluorescence ratio": 1.09}
{"sequence": "GTGATACGCA", "switch fluorescence ratio": 1.1}
{"sequence": "GTGATCCTCG", "switch fluorescence ratio": 1.02}
{"sequence": "GTGATGAAGG", "switch fluorescence ratio": 1.01}
{"sequence": "GTGATGAGGT", "switch fluorescence ratio": 0.979}
{"sequence": "GTGATGTGAC", "switch fluorescence ratio": 1.01}
{"sequence": "GTGATGTTTT", "switch fluorescence ratio": 0.988}
{"sequence": "GTGATTGTAT", "switch fluorescence ratio": 1}
{"sequence": "GTGCAACCGA", "switch fluorescence ratio": 1.04}
{"sequence": "GTGCAAGCTT", "switch fluorescence ratio": 1.02}
{"sequence": "GTGCAAGTTC", "switch fluorescence ratio": 1.18}
{"sequence": "GTGCACGAGG", "switch fluorescence ratio": 1}
{"sequence": "GTGCATCTGT", "switch fluorescence ratio": 1.01}
{"sequence": "GTGCCCTATG", "switch fluorescence ratio": 0.978}
{"sequence": "GTGCCCTGCA", "switch fluorescence ratio": 0.996}
{"sequence": "GTGCCTCACC", "switch fluorescence ratio": 1.01}
{"sequence": "GTGCCTGATT", "switch fluorescence ratio": 0.982}
{"sequence": "GTGCCTGCAG", "switch fluorescence ratio": 1.04}
{"sequence": "GTGCGAGCCG", "switch fluorescence ratio": 1.01}
{"sequence": "GTGCGAGCTA", "switch fluorescence ratio": 0.971}
{"sequence": "GTGCGGACGG", "switch fluorescence ratio": 0.982}
{"sequence": "GTGCGGATGC", "switch fluorescence ratio": 0.941}
{"sequence": "GTGCGGCT", "switch fluorescence ratio": 0.978}
{"sequence": "GTGCGGGACT", "switch fluorescence ratio": 1.01}
{"sequence": "GTGCGGTCCG", "switch fluorescence ratio": 1.04}
{"sequence": "GTGCGGTGGA", "switch fluorescence ratio": 1.01}
{"sequence": "GTGCGTGATG", "switch fluorescence ratio": 0.968}
{"sequence": "GTGCTAAGGC", "switch fluorescence ratio": 1.03}
{"sequence": "GTGCTACACG", "switch fluorescence ratio": 0.959}
{"sequence": "GTGCTCATTG", "switch fluorescence ratio": 1}
{"sequence": "GTGGAAAACC", "switch fluorescence ratio": 0.958}
{"sequence": "GTGGAACTGA", "switch fluorescence ratio": 1.04}
{"sequence": "GTGGACGAGG", "switch fluorescence ratio": 0.961}
{"sequence": "GTGGAGGATG", "switch fluorescence ratio": 1.04}
{"sequence": "GTGGAGGTT", "switch fluorescence ratio": 1.04}
{"sequence": "GTGGATGCCT", "switch fluorescence ratio": 0.95}
{"sequence": "GTGGATTAGC", "switch fluorescence ratio": 0.997}
{"sequence": "GTGGATTTGC", "switch fluorescence ratio": 0.965}
{"sequence": "GTGGCACTTA", "switch fluorescence ratio": 1}
{"sequence": "GTGGCAGCAG", "switch fluorescence ratio": 0.994}
{"sequence": "GTGGCATAAT", "switch fluorescence ratio": 1.03}
{"sequence": "GTGGCATTAC", "switch fluorescence ratio": 3.34}
{"sequence": "GTGGCCAACA", "switch fluorescence ratio": 0.996}
{"sequence": "GTGGCCTCAC", "switch fluorescence ratio": 0.982}
{"sequence": "GTGGCGATA", "switch fluorescence ratio": 1}
{"sequence": "GTGGCTATTT", "switch fluorescence ratio": 1.02}
{"sequence": "GTGGGACCGT", "switch fluorescence ratio": 1.02}
{"sequence": "GTGGGACTTG", "switch fluorescence ratio": 0.985}
{"sequence": "GTGGGCAGGC", "switch fluorescence ratio": 0.948}
{"sequence": "GTGGGCAGTG", "switch fluorescence ratio": 1.03}
{"sequence": "GTGGGCGTCA", "switch fluorescence ratio": 0.982}
{"sequence": "GTGGGGACAT", "switch fluorescence ratio": 0.972}
{"sequence": "GTGGGGCTCC", "switch fluorescence ratio": 1.02}
{"sequence": "GTGGGGGGT", "switch fluorescence ratio": 0.99}
{"sequence": "GTGGGGTT", "switch fluorescence ratio": 1.05}
{"sequence": "GTGGGGTTAC", "switch fluorescence ratio": 1.04}
{"sequence": "GTGGGTATGC", "switch fluorescence ratio": 1.02}
{"sequence": "GTGGGTCCGC", "switch fluorescence ratio": 1.05}
{"sequence": "GTGGGTTGG", "switch fluorescence ratio": 0.98}
{"sequence": "GTGGTAAGCC", "switch fluorescence ratio": 1}
{"sequence": "GTGGTAGATG", "switch fluorescence ratio": 0.96}
{"sequence": "GTGGTATACA", "switch fluorescence ratio": 0.968}
{"sequence": "GTGGTCGATA", "switch fluorescence ratio": 1.01}
{"sequence": "GTGGTCTGAT", "switch fluorescence ratio": 0.939}
{"sequence": "GTGGTGAAAC", "switch fluorescence ratio": 1.05}
{"sequence": "GTGGTGACGT", "switch fluorescence ratio": 1.04}
{"sequence": "GTGGTGGGCG", "switch fluorescence ratio": 1.01}
{"sequence": "GTGGTGTCTG", "switch fluorescence ratio": 0.988}
{"sequence": "GTGGTTACGA", "switch fluorescence ratio": 1.02}
{"sequence": "GTGGTTGAAT", "switch fluorescence ratio": 0.99}
{"sequence": "GTGGTTTAC", "switch fluorescence ratio": 1.02}
{"sequence": "GTGGTTTGCA", "switch fluorescence ratio": 0.987}
{"sequence": "GTGTAACTAC", "switch fluorescence ratio": 1.04}
{"sequence": "GTGTAAGCT", "switch fluorescence ratio": 0.974}
{"sequence": "GTGTACGGAC", "switch fluorescence ratio": 1.15}
{"sequence": "GTGTACGGAT", "switch fluorescence ratio": 1.02}
{"sequence": "GTGTAGCACT", "switch fluorescence ratio": 1.06}
{"sequence": "GTGTATGGTA", "switch fluorescence ratio": 1.01}
{"sequence": "GTGTCAATGG", "switch fluorescence ratio": 1.05}
{"sequence": "GTGTCCCCTA", "switch fluorescence ratio": 0.977}
{"sequence": "GTGTCCCGCA", "switch fluorescence ratio": 0.972}
{"sequence": "GTGTCCGAGA", "switch fluorescence ratio": 1}
{"sequence": "GTGTCGAT", "switch fluorescence ratio": 1}
{"sequence": "GTGTCTTTAT", "switch fluorescence ratio": 0.942}
{"sequence": "GTGTGACGTA", "switch fluorescence ratio": 1.07}
{"sequence": "GTGTGAGATA", "switch fluorescence ratio": 0.969}
{"sequence": "GTGTGCGACC", "switch fluorescence ratio": 1.01}
{"sequence": "GTGTGGAAAA", "switch fluorescence ratio": 1.04}
{"sequence": "GTGTGGACGA", "switch fluorescence ratio": 1.03}
{"sequence": "GTGTGGATAC", "switch fluorescence ratio": 1.08}
{"sequence": "GTGTGTAGGT", "switch fluorescence ratio": 0.907}
{"sequence": "GTGTTAATAA", "switch fluorescence ratio": 1.06}
{"sequence": "GTGTTATGCC", "switch fluorescence ratio": 0.955}
{"sequence": "GTGTTATGCT", "switch fluorescence ratio": 0.976}
{"sequence": "GTGTTATTAA", "switch fluorescence ratio": 1.05}
{"sequence": "GTGTTGGGG", "switch fluorescence ratio": 1.01}
{"sequence": "GTGTTGGGTC", "switch fluorescence ratio": 0.969}
{"sequence": "GTGTTTGATA", "switch fluorescence ratio": 1}
{"sequence": "GTGTTTTAAC", "switch fluorescence ratio": 0.955}
{"sequence": "GTTAAAAATA", "switch fluorescence ratio": 1.02}
{"sequence": "GTTAAATAGT", "switch fluorescence ratio": 0.961}
{"sequence": "GTTAAATCGC", "switch fluorescence ratio": 0.97}
{"sequence": "GTTAACACTG", "switch fluorescence ratio": 1.03}
{"sequence": "GTTAACGTCG", "switch fluorescence ratio": 0.959}
{"sequence": "GTTAATAGCC", "switch fluorescence ratio": 0.963}
{"sequence": "GTTAATAGTA", "switch fluorescence ratio": 1}
{"sequence": "GTTAATGGA", "switch fluorescence ratio": 0.987}
{"sequence": "GTTAATTTAA", "switch fluorescence ratio": 1.01}
{"sequence": "GTTACACAGC", "switch fluorescence ratio": 1.02}
{"sequence": "GTTACAGGGT", "switch fluorescence ratio": 1.06}
{"sequence": "GTTACATGGT", "switch fluorescence ratio": 1.03}
{"sequence": "GTTACGATC", "switch fluorescence ratio": 1.02}
{"sequence": "GTTACGCTAT", "switch fluorescence ratio": 1.28}
{"sequence": "GTTACGGTGC", "switch fluorescence ratio": 1.06}
{"sequence": "GTTAGAATAT", "switch fluorescence ratio": 0.964}
{"sequence": "GTTAGCGCAA", "switch fluorescence ratio": 2.46}
{"sequence": "GTTAGTAATA", "switch fluorescence ratio": 0.997}
{"sequence": "GTTAGTTAG", "switch fluorescence ratio": 1.01}
{"sequence": "GTTAGTTGGG", "switch fluorescence ratio": 0.965}
{"sequence": "GTTAGTTTAG", "switch fluorescence ratio": 0.987}
{"sequence": "GTTATAATG", "switch fluorescence ratio": 0.998}
{"sequence": "GTTATAGATT", "switch fluorescence ratio": 0.983}
{"sequence": "GTTATATAGC", "switch fluorescence ratio": 1}
{"sequence": "GTTATCTCCA", "switch fluorescence ratio": 0.976}
{"sequence": "GTTATCTTG", "switch fluorescence ratio": 0.999}
{"sequence": "GTTATGACGG", "switch fluorescence ratio": 1.11}
